The whole screen tested about 210,000 compounds, of which about 5,900 (2.8%) were called active. Inconclusive means that the source gave no clear call. Such entries were picked first, then a sample of the others. The call rests on the fitted dose curve; in most records, active means well fitted activation curve with a large enough effect; inconclusive means small, poorly fitted or top-dose-only effect; inactive means no such curve, though single readings can be large or run the other way. A potency beside an inconclusive call is a rough fit, not a confirmed value.
Experiment: qHTS Assay for Enhancers of SMN2 Splice Variant Expression; further: nearly all actives have a fitted effect of over 55% in size; on activity change, positive = activation: % of control where 0% means no effect
Settings: HEK293 SMN2-luciferase splicing reporter, luminescence, 30-36 h; activity change, positive = activation: at 46.1 µM (top of the series)
Outline: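 qHTS luciferase splicing reporter: luminescence rises when SMN2 exon 7 is included in transfected HEK293 cells. Compound exposure lasted 30-36 h at 37C, with 4.5 mM final sodium butyrate as control, followed by a ONE-Glo read.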
Potency means the concentration at half of the fitted maximal effect; tags describe the fitted curve by direction and shape.

Structure (SMILES) | Potency | activity change, positive = activation
Cc1c(NC(=O)CN2C(=O)NC(C)(c3ccccc3)C2=O)c(=O)n(-c2ccccc2)n1C (stereo unspecified) | inconclusive: 35.5 µM [activator, partial curve, poor fit] | 
Cc1cccc(NC(=O)/C(C#N)=C/c2ccco2)c1 | inconclusive: 12.6 µM [activator, partial curve] | 
C=CCn1c(SCC(=O)Nc2cccc(C(=O)OC)c2)nnc1C(C)NC(=O)c1cccs1 (stereo unspecified) | inconclusive: 20 µM [activator, single point] | 
CCOc1ccc(NC(=O)CCc2c(C)nc3cc(-c4ccccc4OC)nn3c2C)cc1 | inactive | 
CC(=O)NC1CC2CCCC(C1)N2CC(=O)NCc1ccc(F)cc1 (stereo unspecified) | inconclusive: 3.55 µM [activator, full curve, poor fit] | 
c1csc(CSc2nnc3sc4ccccc4n23)c1 | active: 14.1 µM | 
CCN(CC)C(=S)SCC(=O)NC12CC3CC(CC(C3)C1)C2 | inactive | 
CCCN1C(=O)c2cc(C(=O)NC3CCCCCC3)ccc2C1O (stereo unspecified) | active: 10 µM | 
CC(C)(C)C1CCc2c(sc3nc(SCC(N)=O)nc(N)c23)C1 (stereo unspecified) | inconclusive: 11.2 µM [activator, partial curve, poor fit] | 
O=C(CSc1nc2ccccc2c2ccccc12)c1ccccc1 |  | inactive: -7.65% [at 9.22 µM]
COc1ccc(NC(=O)CCSc2nnnn2C)cc1 | inconclusive: 14.1 µM [activator, single point] | 
COc1ccc(C)cc1-n1c(N)c(C#N)c(C#N)c1-c1ccc(OC)c(OC)c1OC | inconclusive: 8.91 µM [activator, partial curve] | 
CC(C)NC(=O)N1CC[C@@]2(CCCN(C(=O)c3cc(C(F)(F)F)cc(C(F)(F)F)c3)C2)C1 | inactive | 
N/C(Cc1ccc(Cl)cc1)=N\OC(=O)c1ccccc1 | inactive | 
COc1ccc(C2=NN(S(C)(=O)=O)C(c3ccc4nccnc4c3)C2)cc1 (stereo unspecified) | inconclusive: 11.2 µM [activator, partial curve] | 
COc1ccc(NC(=O)C(c2ccccc2)N(C)C(=O)/C=C\c2ccc3c(c2)OCO3)cc1 (stereo unspecified) | inconclusive: 3.16 µM [activator, single point] | 
O=C(COC(=O)c1ccc2c(=O)n3c(nc2c1)CCC3)NC1CCS(=O)(=O)C1 (stereo unspecified) | inactive | 
O=C1N=C(N2CCOCC2)SC1=C1CCCCC1 | inconclusive: 35.5 µM [activator, single point] | 
COc1ccc(CCNC(=O)CN2C(=O)COc3ccc(S(=O)(=O)N4CCCC4)cc32)cc1OC | inconclusive: 10 µM [activator, partial curve] | 
CCOC(=O)c1c(-c2ccccc2)csc1N1C(=O)Nc2ccccc2N1O | inconclusive: 3.98 µM [activator, single point] | 
CC1CCN(C(=S)Nc2ccc(F)cc2)CC1 | inconclusive: 22.4 µM [activator, single point] | 
COc1ccc(/C=N/S(=O)(=O)CCc2ccccc2)c(OC)c1 | inconclusive: 5.62 µM [activator, single point] | 
CC(=O)N1CCN(CCN(CC2C(C)C=C(C)CC2C)C(C)=O)CC1 (stereo unspecified) | inactive | 
CCn1c(C(=O)N2CCCC(C(=O)O)C2)cc2sccc21 (stereo unspecified) | inactive | 

Structure (SMILES) | Potency | activity change, positive = activation
CC1CCN(CCCNC(=O)c2cc3c(=O)n(C)c4ccccc4c3n2C)CC1 | inactive | 
Fc1ccc(-c2csc(-c3ccncc3)n2)cc1 | inactive | 
COC(=O)c1ccccc1N1C(=O)C2C(C1=O)[C@H]1C=C[C@@H]2C1 (stereo partly specified) | inconclusive: 0.1 µM [activator, full curve, poor fit] | 
O=C(N/N=C/c1c[nH]c2ccccc12)c1sc2ccccc2c1Cl | inconclusive: 35.5 µM [activator, single point] | 
CC1CCN(S(=O)(=O)c2ccc3c(c2)c(=O)c(C(=O)N2CCN(c4cccc(Cl)c4)CC2)cn3C)CC1 | inactive | 
FC(F)(F)c1cnc(C(c2ccccn2)c2ncn[nH]2)c(Cl)c1 (stereo unspecified) | inactive | 
Cc1ccc(OCC(=O)Nc2ccc(N3CCOCC3)cc2)c([N+](=O)[O-])n1 | inactive | 
CC(=O)c1cccc(NC(=O)c2noc3c2CCc2ccccc2-3)c1 | active: 3.55 µM | 
CN(C)c1ccc(/C=N/N(Cc2ccccc2)c2ccccc2)cc1 | inconclusive: 3.55 µM [activator, single point] | 
COc1ccc(NC(=O)CSc2nc(-c3cc(OC)c(OC)c(OC)c3)[nH]c2-c2ccc(F)cc2)cc1 | inconclusive: 15.8 µM [activator, partial curve] | 
C=CCn1c(SCC(=O)N2CCc3ccccc3C2)nc2sc(CC)cc2c1=O | inactive | 
O=C(COc1ccc(Br)cc1Br)NC(=S)Nc1cccc(CO)c1 | active: 17.8 µM | 
CCCn1c(SCC(=O)Nc2nc(C)c(C(=O)OC)s2)nnc1C(C)C | inactive | 
COCCNc1nc2c(c(=O)n(C)c(=O)n2C)n1Cc1c(F)cccc1Cl | inactive | 
Cn1c(NC(=O)c2cc(-c3ccc4c(c3)OCO4)nc3ccccc23)cc(=O)n(C)c1=O | active: 10 µM | 
O=C(c1ccco1)N1CCN(C2CCCC2)CC1 | inconclusive: 14.1 µM [activator, single point] | 
Cc1ccc(C)c(C(=O)CSc2nnnn2C(C)C)c1 | inconclusive: 14.1 µM [activator, partial curve] | 
CC(CCc1ccccc1)NC(=O)/C=C/c1ccc(F)cc1 (stereo unspecified) | inconclusive: 5.62 µM [activator, single point] | 
COc1ccccc1NC(=O)c1ccc(COc2ccc3c(c2)CCC3)cc1 | active: 11.2 µM | 
O=[N+]([O-])c1ccc(/C=N/Nc2nc(N3CCCC3)nc(N3CCCC3)n2)o1 | inconclusive: 8.91 µM [activator, partial curve, poor fit] | 
COC(=O)/C=C/c1cnc2ccccc2c1 | inconclusive: 12.6 µM [activator, partial curve] | 
Cc1ccc(NC(=O)/C(Cl)=C/c2ccccc2)cc1C | inconclusive: 0.398 µM [activator, single point] | 
CC(C)C(=O)N1CCC(c2nc(-c3ccc(S(=O)(=O)N4CCN(C)CC4)cc3)no2)CC1 | inactive | 
CCN1C(=O)c2cccc3c(S(=O)(=O)Nc4ccccc4OC)ccc1c23 | inconclusive: 35.5 µM [activator, partial curve] | 

Structure (SMILES) | Potency | activity change, positive = activation
O=C(Nc1nccs1)c1sc2ccccc2c1Cl | active: 2.51 µM | 
CC1=C(C(=O)Nc2cccnc2)C(c2ccc3c(c2)OCO3)C2=C(CCCC2=O)N1 (stereo unspecified) | inconclusive: 4.47 µM [activator, partial curve, poor fit] | 
O=C(N/C(=C/c1ccc(Br)cc1)c1nc2ccccc2[nH]1)c1ccco1 | inconclusive: 11.2 µM [activator, partial curve] | 
COc1ccc(CCNC(=O)Cn2cnc3scc(-c4ccccc4)c3c2=O)cc1OC | inconclusive: 15.8 µM [activator, single point] | 
CC(=O)Nc1nc(-c2ccc(Cl)cc2)ns1 | inconclusive: 14.1 µM [activator, single point] | 
Cc1ccc(C(C)C)c(Oc2nnnn2-c2ccccc2)c1 | inconclusive: 35.5 µM [activator, partial curve, poor fit] | 
Cc1ccc2c(=O)cc(C(=O)NCc3ccccc3)oc2c1 | inactive | 
O=C(Nc1ccc(N2CCCC(O)C2)cc1)c1snc2c(=O)[nH]cnc12 (stereo unspecified) | inconclusive: 15.8 µM [activator, single point] | 
CCN1CCN(Cc2ccc(NC(=O)Nc3cccs3)cc2)CC1 | inconclusive: 35.5 µM [activator, single point] | 
CCC1=[N+](CC(=O)c2ccc(C)cc2)CCn2cccc21 | inconclusive: 17.8 µM [activator, single point] | 
O=C(CN1CCSC1=NCc1ccccc1)c1ccc(Cl)cc1 | inconclusive: 3.55 µM [activator, partial curve] | 
Cc1csc2nc(=O)c3ccccc3n12 | inconclusive: 0.501 µM [activator, full curve] | 
Cc1c(C(=O)NCc2cccc(Br)c2)oc2ccc3c(c12)C(=O)CC(C)(C)O3 | inconclusive: 12.6 µM [activator, single point] | 
Nc1c(C(=O)c2ccc(Cl)cc2)oc2ccccc12 | inconclusive: 17.8 µM [activator, single point] | 
Cc1c(C(=O)NCc2ccccn2)oc2ccccc12 | inconclusive: 1.12 µM [activator, full curve, poor fit] | 
CN(C)c1ccc(N=Cc2nc(-c3ccccc3)oc2OC(=O)c2cccc(Cl)c2)cc1 | active: 11.2 µM | 
COc1ccc(-n2c(C)nn(C)c2=O)c(OC)c1 | inconclusive: 0.01 µM [activator, full curve, poor fit] | 
COc1ccc(-c2cc(COc3ccccc3)on2)cc1 | inconclusive: 17.8 µM [activator, single point] | 
O=C(c1ccccc1)c1cc(-c2ccccc2)on1 | inconclusive: 35.5 µM [activator, single point] | 
Cc1ccn2c(Nc3ccc4c(c3)OCCO4)c(-c3ccc(C)o3)nc2c1 | inconclusive: 20 µM [activator, single point] | 
CCCCC(=O)NC1(C(F)(F)F)C(=O)Nc2c1c(=O)n(C)c(=O)n2C (stereo unspecified) | inconclusive: 0.891 µM [activator, full curve, poor fit] | 
Cn1c(CN2CCCC2)nc2cc(NC(=O)COc3ccc([N+](=O)[O-])cc3)ccc21 | inactive | 
CCc1ccc(NCc2nc3ccccc3c(=O)[nH]2)cc1 | active: 10 µM | 

From PubChem BioAssay AID1458 (National Center for Advancing Translational Sciences (NCATS), 2008)
